The values that follow come from PubChem BioAssay AID1346428 (National Center for Advancing Translational Sciences (NCATS), 2018).

Each structure is given as a SMILES string. Where “and” joins values, the source holds several entries; their conditions need not be identical. Equal entries are not always repeated. Out of some 48,000 compounds screened, about 1,200 (2.5%) were called active. Another 2% or so got no clear call; they are omitted.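 Rule for the calls: active = activation of at least 60% and not above a set upper limit (about 1 call in 100 departs from these limits); inconclusive = activation of 40% to 60%, or above that upper limit; inactive = activation under 40%.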 Some of the results follow.

In this assay the target is Probable G-protein coupled receptor 32 (Homo sapiens) (UniProt O75388). The assay is described as follows: qHTS for Agonists of Human Resolvin D1 Receptor DRV1. Note: 0% is about no effect. To be noted: CHO-K1 GPR32 beta-arrestin PathHunter luminescence, 90 min; at 76.9 µM; hits give high values; zero percent set by DMSO-only wells. In short, it runs like this: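 Readings come from a cell-based beta-arrestin complementation format: CHO-K1 GPR32 stable cells (2,500/well) treated 90 min with compounds, then beta-Gal substrate added for 1 h before chemiluminescence imaging.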
Sequence of UniProt O75388 (O75388 whole entry, looked up): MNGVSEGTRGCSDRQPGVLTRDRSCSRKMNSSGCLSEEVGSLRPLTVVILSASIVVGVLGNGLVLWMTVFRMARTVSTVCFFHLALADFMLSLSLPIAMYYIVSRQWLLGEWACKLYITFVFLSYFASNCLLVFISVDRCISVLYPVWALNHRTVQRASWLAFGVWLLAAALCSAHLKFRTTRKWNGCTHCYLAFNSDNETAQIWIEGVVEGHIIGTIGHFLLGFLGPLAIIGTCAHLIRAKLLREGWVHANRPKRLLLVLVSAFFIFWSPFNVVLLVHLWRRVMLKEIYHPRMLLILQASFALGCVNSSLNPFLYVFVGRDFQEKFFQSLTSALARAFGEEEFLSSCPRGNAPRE
On the technique in general: Quantitative high-throughput screening tests each substance at several concentrations.
Consider `COc1ccc(-c2onc(C)c2C)cc1S(=O)(=O)NC1CCCCC1`, for which the activation was inactive: -3.79%.

For `COc1ccc(CNC(=O)CCCCCn2c(=O)[nH]c3ccccc3c2=O)cc1`, the activation was inactive: -3.46%.

With `CCOC(=O)c1[nH]c2ccccc2c1NC(=O)c1cc(Cl)ccc1Cl`, the activation is inactive: 42.6%.

`Cc1ccc(CNc2ccc(-c3nc(-c4cccnc4)no3)cc2[N+](=O)[O-])cc1`: the activation was inactive: 3.24%.

With `CCN(CC)S(=O)(=O)c1ccc2c(c1)N(CC(=O)Nc1ccc(F)cc1F)C(=O)C1CCCN21` (centres undefined), the activation is inactive: -29.3%.

Turning to `CCn1cc(C(=O)NCCc2ccc(Cl)cc2)c(=O)c2cc(S(=O)(=O)N3CCOCC3)ccc21`, the activation is inactive: 4.07%.

On to `COc1cc(NC(=O)Cn2c(C)cc(C)c(C#N)c2=O)cc(OC)c1`, for which the activation was inactive: -1.43%.

`CCOC(=O)c1[nH]c2ccccc2c1NC(=O)c1ccc(OC)c(OC)c1`: the activation is inactive: -20.2%.

For `NCCO`, the activation is inactive: -16.1%.

In the case of `Oc1cccc(-c2nc3ncccn3c2Nc2cccc(C(F)(F)F)c2)c1`, the activation is inactive: 33.4%.

With `COc1ccccc1Nc1nc2c(S(=O)(=O)c3ccc(C(C)C)cc3)nnn2c2ccsc12`, the activation is inactive: -3.93%.

For the compound `O=C(CC(c1cccs1)N1Cc2ccccc2C1=O)Nc1ccc(Cl)cc1` (centres undefined), the activation is inactive: -8.91%.

As to `COc1ccccc1Cc1nc2ccccc2nc1SCC(=O)NCc1ccc(F)cc1`, the activation is inactive: 0.569%.

Consider `Cc1ccc2c(=O)cc(C(=O)Nc3ccc(S(=O)(=O)N4CCCCC4)cc3)oc2c1C`, for which the activation is inactive: -16.6%.

Consider `Cc1cccc(N2CCN(c3ncnc4onc(-c5ccc(F)cc5)c34)CC2C)c1` (centres undefined), for which the activation was inactive: 1.03%.

Consider `CCOc1ccc2nc(Cl)c(C3CC(c4ccc(C)cc4)=NN3C(=O)CCCC(=O)O)cc2c1` (centres undefined), for which the activation was inactive: 1.76%.

With `Cc1ccc(NC(=O)CCc2nc3cccnc3n2-c2ccccc2)cc1`, the activation is inactive: 3.61%.

Regarding `Cc1cc(C)c2oc(-c3ccc(NC(=O)c4cc(Br)ccc4Cl)cc3)nc2c1`, the activation is inactive: -4.16%.

For the compound `Cc1c(-c2ccccc2)n(-c2ccc(Cl)cc2)c2nc3c(c(=O)n(C)c(=O)n3C)n12`, the activation is inactive: 0.672%.

In the case of `O=C(Cn1c(=O)n(Cc2ccc(C(=O)NCc3ccccc3Cl)cc2)c(=O)c2ccccc21)Nc1ccc(F)cc1`, the activation is inactive: -4.9%.

Consider `Cc1coc2cc3oc(=O)c(CC(=O)NCCc4ccccc4F)c(C)c3cc12`, for which the activation was inactive: -8.03%.

Take `CCCCC(=O)Nc1nnc(S(=O)(=O)N2CCCCCC2)s1`: the activation is inactive: -7.8%.

With `COC(=O)c1cc2sccc2n1Cc1ccc(F)cc1`, the activation was inactive: -10.1%.

Turning to `Cc1cccc(-c2cc(NC(=O)c3ccccc3C)n(-c3ccccc3)n2)c1`, the activation was inactive: -2.43%.

`Cc1ccc(C)c(CNC(=O)C2CCCCN2S(=O)(=O)c2ccc(F)cc2)c1` (centres undefined): the activation is inactive: -6.77%.

As to `Cc1ccc(C)c(N2CCN(C(=O)CN3C(=O)COc4ccc(S(=O)(=O)N5CCOCC5)cc43)CC2)c1`, the activation is inactive: -2.91%.

As for `CCOc1ccc(NC(=O)c2cccc(N3CCCS3(=O)=O)c2)cc1`, the activation was inactive: 32.4%.

With `CCN(c1cccc(C)c1)C(CNS(=O)(=O)c1ccccc1)c1ccccc1` (centres undefined), the activation is inactive: -1.63%.

For `CCC(=O)N1c2ccccc2CC1C(=O)NCCCN1CCN(c2ccccc2)CC1` (centres undefined), the activation was inactive: -3.96%.

For `O=C(Nc1ccc(F)c(Cl)c1)C1CCCN(c2ncnc3onc(-c4ccc(F)cc4)c23)C1` (centres undefined), the activation was inactive: -19.3%.

`CCCS(=O)(=O)c1c(S(=O)(=O)CCC)c2cc(C(C)(C)C)ccn2c1C(=O)c1ccc(OC)c(OC)c1`: the activation is inactive: -23%.

As for `COc1ccc(C2C=C(c3ccc(C)cc3)Nc3c(C(=O)Nc4ccccc4)cnn32)cc1` (centres undefined), the activation was inactive: -43.6%.

On to `COc1ccc(Br)cc1CNC(=O)CCCn1c(=O)c2cccn2c2cccnc21`, for which the activation is inactive: -17.6%.

For the compound `Cc1ccc(C)c(NC(=O)c2cc(S(=O)(=O)N3CCc4ccccc4C3)ccc2F)c1`, the activation is inactive: -15.4%.

In the case of `COc1ccccc1CNC(=O)c1cc2sccc2n1Cc1ccc(F)cc1`, the activation was inactive: -0.0875%.

Take `CN=C(NC#N)NCCSCc1nc[nH]c1C`: the activation is inactive: -13.6% and inactive: 2.07%.

On to `COc1ccc(-c2noc(-c3ccccc3OCC(=O)Nc3ccc(C(C)=O)cc3)n2)cc1`, for which the activation is inactive: 3.64%.

As to `O=C(Cn1ncc2c3ccccc3n(Cc3ccccc3)c2c1=O)N1CCCCCC1`, the activation is inactive: -14.5%.

Consider `COCCCn1c(SCc2ccccc2F)nc2c(sc3ccccc32)c1=O`, for which the activation is inactive: 1.7%.

Take `COc1ccccc1NC(=O)Cn1c(=O)n(-c2ccccc2Cl)c(=O)c2sc3ccccc3c21`: the activation was inactive: 2.36%.

Consider `CCc1cccc(NC(=O)Cn2c(C(=O)OC)cc3occc32)c1`, for which the activation was inactive: -15.2%.

Regarding `COc1cccc(N2CCN(C(=O)c3cnc4c(-c5ccc(F)cc5)c(C)nn4c3C)CC2)c1`, the activation is inactive: -24.1%.

On to `COc1ccc(C(=O)Oc2c(Sc3ccccc3)c(C)nn2-c2ccccc2)c(OC)c1`, for which the activation is inactive: -5.19%.

For the compound `COc1ccccc1CNC(=O)C(=O)NCC(c1ccco1)S(=O)(=O)c1ccc(F)cc1` (centres undefined), the activation is inactive: -11%.

For the compound `COc1ccc(C)c2sc(NC(=O)c3ccc(S(=O)(=O)N4CCOCC4)cc3)nc12`, the activation was inactive: -2.63%.

With `Cc1cccc(C)c1OCCn1c(CCNC(=O)C2CCCCC2)nc2ccccc21`, the activation was inactive: -32.6%.

In the case of `CCOc1ccc(NC(=O)c2cc(-c3ccc(C)c(F)c3)on2)c([N+](=O)[O-])c1`, the activation was inactive: 31.8%.

With `COc1ccc(C2Nc3ccccc3-c3cc(C)nn32)c(OC)c1` (centres undefined), the activation was inactive: -13.2%.

`COC(=O)c1ccccc1NS(=O)(=O)c1cc2c3c(c1)CC(=O)N3CCC2`: the activation was inactive: -7.93%.

As for `CC(C)(C)c1ccc(C(=O)NCC(c2ccco2)S(=O)(=O)c2ccccc2)cc1` (centres undefined), the activation is inactive: -5.03%.

For the compound `CCN(CC)S(=O)(=O)c1ccc2c(c1)N(CC(=O)Nc1ccc(Cl)cc1)C(=O)C1CCCN21` (centres undefined), the activation is inactive: -21.4%.

Consider `CCCCCOc1ccc(NC(=O)Cn2c(-c3nonc3N)nc3ccccc32)cc1`, for which the activation was inactive: -50.7%.

Take `COc1ccc(-c2nc3ccccc3n2Cc2ccccc2)cc1`: the activation is inactive: 1.75%.

As to `Cc1c(Cl)ccc2sc(N3CCN(C(=O)CCS(=O)(=O)c4ccc(F)cc4)CC3)nc12`, the activation was inactive: 18.2%.

For the compound `COc1cccc(C(=O)Nc2nc(-c3nnn(-c4ccccc4C(F)(F)F)c3C)ns2)c1`, the activation is active: 90.8%.

Regarding `CCOc1ccc2nc(N(Cc3cccnc3)C(=O)c3cccs3)sc2c1`, the activation is inactive: -19.7%.

In the case of `COc1cccc(-c2nc(Cn3c(=O)cc(C)c4c(C)nn(-c5ccccc5)c43)c(C)o2)c1OC`, the activation is inactive: -17.3%.

As to `Cc1ccc2c(c1)C(c1ccccc1)N(C(=O)COc1ccc(Cl)cc1Cl)CC(=O)N2` (centres undefined), the activation is inactive: -25.5%.

As for `Cc1ccc(-n2nc(C)c3c(C(=O)Nc4ccccc4C(F)(F)F)cc(C)nc32)cc1`, the activation was inactive: -25.9%.

In the case of `CC1=C(C(=O)Nc2ccccc2)C(c2ccccn2)n2nc(SCc3ccccc3)nc2N1` (centres undefined), the activation was inactive: 9.28%.

Turning to `CCCCN1C(=O)C(O)(CC(=O)c2ccc(CC)cc2)c2cc(Br)ccc21` (centres undefined), the activation was inactive: -13.4%.

Turning to `CCCN(C(=O)c1cc2c(=O)oc3ccc(C)cc3c2s1)c1ccc(OCC)cc1`, the activation was inactive: 6.21%.

Turning to `CCSc1nc(-c2cccc(Cl)c2)nc2c1Cc1c(CO)cnc(C)c1O2`, the activation is inactive: 11.9%.

In the case of `COc1cccc(CNC(=O)Cn2nc(C)n3c(cc4cc(C)ccc43)c2=O)c1OC`, the activation was inactive: -6.94%.

With `Cn1c(=O)c2cc(S(=O)(=O)NC(Cc3ccccc3)C(=O)Nc3ccc(F)cc3)ccc2n(C)c1=O` (centres undefined), the activation is inactive: -1.4%.

On to `CC(=O)N1CCCc2cc(S(=O)(=O)N(C)CC(=O)Nc3cccc(Cl)c3C)ccc21`, for which the activation was inactive: 2.11%.

Consider `CCc1ccc(S(=O)(=O)NCCc2cn3ccsc3n2)cc1`, for which the activation is inactive: -1.38%.

For `CCCCC(=O)N1c2ccccc2C(C)(c2ccccc2)CC1(C)C` (centres undefined), the activation is inactive: -13%.

As for `Cc1cccc(CNC(=O)c2cnc3c(-c4cccc(C)c4)c(C)nn3c2C)c1`, the activation was inactive: -15.8%.

Consider `N[C@H](C(=O)O)[C@H](O)C(=O)O`, for which the activation was inactive: 4.64%.

With `COc1ccc(OC)c(CCNc2ncnc3onc(-c4ccc(Cl)cc4)c23)c1`, the activation is inactive: -5.98%.

`O=C(c1ccccc1Cl)n1nc(-c2ccco2)nc1NCc1cccs1`: the activation was inactive: 2.91%.

As to `CCOC(=O)c1ccc(CN(Cc2ccc(F)cc2)S(=O)(=O)c2ccc(F)c(C(=O)Nc3cc(Cl)ccc3OC)c2)cc1`, the activation is inactive: -9.47%.

Take `Cc1ccc(N2CCN(C(=O)c3c(C)oc4ncn(C)c(=O)c34)CC2)c(C)c1`: the activation is inactive: -6.71%.

Turning to `CCN(CC)c1ccc(NC(=O)COCc2cc(-c3ccc4c(c3)OCO4)on2)c(C)c1`, the activation was inactive: -29.5%.

Take `Cc1ccccc1Cn1c2ccccc2c2cnn(CC(=O)NCc3cccc(Cl)c3)c(=O)c21`: the activation was inactive: 3.24%.

Take `Cc1ccc(NC(=O)CSc2nc3c(oc4ccccc43)c(=O)n2Cc2ccco2)cc1F`: the activation is inactive: -3.85%.

As for `Cc1nc(-n2nc(C)c(Cc3ccc(Cl)cc3)c2C)sc1C(=O)N1CCC(C)CC1`, the activation is inactive: -1.2%.

`CC(C)c1ccc(OCC(=O)Nc2ccc(S(=O)(=O)Nc3ncccn3)cc2)cc1`: the activation is inactive: 21.4%.

In the case of `OC1(c2ccc(Cl)cc2)CCNCC1`, the activation is inactive: -23.8%.

In the case of `CC(=O)N1CCCc2cc(S(=O)(=O)N(C)CC(=O)Nc3ccc(C(C)C)cc3)ccc21`, the activation is inactive: 19.4%.

For the compound `COc1ccc(CNC(=O)c2cc3c(=O)n(Cc4ccco4)ccc3nc2C)c(OC)c1`, the activation was inactive: -12.8%.

For `Cn1cc(-c2cc3n(n2)CCC(=O)N3CCCC(=O)Nc2ccc(Cl)cc2)c2ccccc21`, the activation is inactive: -5.72%.

Take `O=C1CC(c2ccccc2)Sc2ccccc2N1Cc1ccccc1F` (centres undefined): the activation was inactive: -9.18%.
